According to PubChem BioAssay AID493208 (National Center for Advancing Translational Sciences (NCATS), 2011):
Among all 44,000 compounds or so, about 340 (0.77%) were called active. About 5% were inconclusive and are not listed. Calls come from the whole dose curve; as a rule, active = well fitted inhibition curve with a large enough effect; inconclusive = small, poorly fitted or top-dose-only effect; inactive = flat fitted curve, though single readings scatter. The list shows a part of the results.

Assay: Acumen qHTS Assay for Inhibitors of the mTORC1 Signaling Pathway in MEF (Tsc2-/-, p53-/-) Cells: Sytravon;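 note: plate controls were DMSO for no effect and rapamycin for full effect; nearly all actives have a fitted effect of over 50% in size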
Conditions: phospho-rpS6 immunofluorescence/PI, 24 h; series mostly up to 38.3 µM; activity change, negative = inhibition: at the top concentration
How it was run: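 Readout is phospho-S6 Alexa 488 signal normalized to PI per well, reported as % active cells with thresholds set from rapamycin (7.5 nM) and DMSO controls. Cells: Tsc2-/-, p53-/- MEFs, 24 hrs compound at 37 C; PI cell number serves as viability.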

Activity change, negative = inhibition, inactive:
COc1ccc(-c2nnc(Nc3ccc(OCC(N)=O)cc3)c3ccccc23)cc1 11.1%
Cc1cc(C)n(-c2nc3ccccc3nc2Nc2cccc(C(F)(F)F)c2)n1 3.58%
COc1ccc(C2C(C(=O)Nc3ccccc3)=C(C)Nc3nc(-c4ccccc4)nn32)cc1OC (stereo unspecified) -15.7%
COc1ccc(OC)c(-c2nc(Nc3ccccc3C)sc2CC(=O)O)c1 -7.02%
CCOC(=O)c1ccccc1NC(=O)CSc1ccc(-c2sc(-c3ccccc3)nc2C)nn1 2.96%
O=C1CCSC2(C(=O)N(Cc3ccc(F)cc3)c3ccccc32)N1c1ccccc1 (stereo unspecified) 0%
CC(C)CCNC(=O)CN1C(=O)COc2ccc(S(=O)(=O)N3CCOCC3)cc21 -8.06%
COc1ccc(NC(=O)C(=O)NCCc2ccccc2)cc1OC -10.4%
CC(C)c1ccc(NC(=O)C2CCCN(S(=O)(=O)c3ccc(Br)s3)C2)cc1 (stereo unspecified) -3.28%
COc1cccc(C(=O)Nc2ccccc2C(=O)OCc2cc(=O)n3nc(C)sc3n2)c1 0%
CCOC(=O)c1cccc(NC(=O)c2cc3c(Cl)nc4ccc(C)cc4c3s2)c1 -0.962%
COc1ccc(-n2cc(-c3ccccc3)c3c(SC(C)C(C)=O)ncnc32)cc1 (stereo unspecified) 5.1%
CCc1ccc(NS(=O)(=O)c2ccc3[nH]cc(C(=O)NC4CCCC4)c(=O)c3c2)cc1 0.852%
Fc1ccc(-c2cc(-c3nc(-c4cccc(Cl)c4)no3)[nH]n2)cc1 0.499%
CC1CCC(NC(=O)c2ccc3c(c2)N(Cc2cccc(F)c2)C(=O)c2ccccc2S3)CC1 (stereo unspecified) -3.14%
CCc1nnc(SCc2ccc(F)cc2Cl)c2cc3sccc3n12 3.56%
Cc1ccc(C)c(NC(=O)C(C)n2c(=O)cc(C(F)(F)F)c3c(C)nn(C)c32)c1 (stereo unspecified) -0.342%
CCN1CCN(C(=O)c2ccc3c(c2)N(Cc2cccc(Cl)c2)C(=O)c2ccccc2S3(=O)=O)CC1 -0.49%
COc1ccccc1CNC(=O)CSc1ncc2c(n1)-c1ccccc1N(Cc1ccc(C)cc1)S2(=O)=O 0.889%
COc1ccc(-c2noc(C3CC(=O)N(c4ccc(C)c(F)c4)C3)n2)c(OC)c1 (stereo unspecified) 0%
COc1ccc(Cl)cc1C(=O)NCC(c1ccc(N(C)C)cc1)N1CCCC1 (stereo unspecified) 0%
Cc1ccc(C)c(NC(=O)Cn2c(=O)n(CCCS(=O)(=O)C3CCCCC3)c(=O)c3ccccc32)c1 3.29%
Cc1ccc(NC(=O)C2CCCN(S(=O)(=O)c3ccc4c(c3)CCCC(=O)N4)C2)cc1N(C)C (stereo unspecified) -13.1%
O=C(Cn1c(-c2cccs2)cc2cc(Cl)ccc21)N1CCCCC1 -19.5%
Cc1ccc(-c2ccc(CCC(=O)O)n2-c2ccc(C)c(Cl)c2)cc1 -13%
CCOc1cc(C(=O)Nc2ccc(-c3nnc4n3CCCCC4)cc2)cc(OCC)c1OCC 0.89%
Fc1ccc(-c2nnn3c2nc(NCc2ccccc2)c2ccccc23)cc1 -5.29%
O=C1CN(C(=O)c2c(F)cccc2Cl)C(c2ccc(F)cc2)c2cc(Br)ccc2N1 (stereo unspecified) -0.158%
Cn1c(=O)n(C)c2cc(N3CCOCC3)c(NS(=O)(=O)c3ccc(F)cc3)cc21 -1.56%
Cc1ccc2c(c1)c1c(c(=O)n(-c3ccccc3)c(=O)n1CC(=O)c1ccc(Cl)cc1)n2C -4.49%
CN(C(=O)CSc1nc2ccc(NC(=O)c3cccs3)cc2s1)c1ccccc1 -1.49%
CCOc1ccc(NC(=O)CSc2nccn2C2CCCC2)cc1 -3.11%
CCc1ccc(CNC(=O)C2CCN(C(=O)c3ccc(-n4c(C)cc5ccccc54)s3)CC2)cc1 -10.3%
COc1ccc(-n2c(=O)c3c4c(sc3n(CC(=O)C(C)(C)C)c2=O)CCCC4)c(OC)c1 2.61%
COC(=O)c1cccc(CN2C(=O)SC(Nc3ccccc3C)C2=O)c1 (stereo unspecified) 0.871%
Cc1ccc(CN2C(=O)CN(C3CCCCCC3)C(=O)C2c2ccc(F)cc2)cc1 (stereo unspecified) 2.2%
COc1ccc(C(=O)Nc2nc(-c3nnn(-c4cc(OC)ccc4OC)c3C)ns2)cc1 -6.65%
Cc1ccc(OCc2cc(=O)n3c(-c4ccccc4)csc3n2)cc1 -7.37%
O=C(Cn1nnc(-c2cccc(C(F)(F)F)c2)n1)NCc1ccc(F)cc1 -6.57%
CCc1ccc(CNC(=O)c2cc3cc4ccc(OC)cc4nc3o2)cc1 1.12%
COc1ccc(-c2cc(C(=O)NCc3ccc(C)cc3)c3cc(C(C)C)ccc3n2)cc1 2.69%
Cc1ccc(NC(=O)C(=O)NCC(c2ccc3c(c2)OCO3)N2CCN(C)CC2)cc1C (stereo unspecified) -8.41%
COc1cc(NC(=O)Nc2c[nH]c(=O)[nH]c2=O)cc(OC)c1OC 8.3%
CC(C)CCNC(=O)Cn1cc(S(=O)(=O)Cc2ccc(F)cc2)c2ccccc21 -4.14%
CCN(CC)S(=O)(=O)c1ccc2c(c1)c(=O)c(C(=O)N1CCN(c3ccccc3OC)CC1)cn2C -7.31%
CCCCOc1ccc(S(=O)(=O)n2nc(C)c(S(=O)(=O)N3CCCCCC3)c2C)cc1 -0.469%
O=C1CCSC2(C(=O)N(Cc3ccccc3)c3ccccc32)N1c1ccccc1 (stereo unspecified) -13.3%
O=C(NCCCN1CCN(c2ccccc2F)CC1)c1sc2ncccc2c1-n1cccc1 0.821%
COc1cccc2cc(-c3nc4ccc(C)cc4[nH]3)c(=O)oc12 6.02%
CCCC(=O)OC1=C(C(C)=O)N(Cc2ccccc2)S(=O)(=O)c2ccccc21 -0.476%
Cc1cc(S(=O)(=O)NCCc2csc(-c3cccc(F)c3)n2)ccc1F -0.892%
CCN(Cc1ccccc1)S(=O)(=O)c1ccc(N2CCCCS2(=O)=O)cc1 0.633%
CCc1ccc2nc(N3CCC(C(=O)NCCC(C)C)CC3)sc2c1 0%
CCCCNC(=O)c1cnc2c(-c3ccc(OCC)c(OCC)c3)c(C)nn2c1-c1ccccc1 -5.43%
O=C(CCS(=O)(=O)c1cc2c(cc1Cl)NC(=O)CO2)NCc1ccccc1 0%
CCc1cccc(C)c1NC(=O)c1cc2ccccc2o1 7.83%
Cn1cc(S(=O)(=O)c2ccccc2)c(=O)c2cc(F)c(N3CCCC3)cc21 -0.0236%
O=C(NCc1ccccc1)c1ccc(CSc2nc3cccnc3n2Cc2ccccc2)cc1 -15.7%
COc1ccc(NC(=O)Cn2cc(S(=O)(=O)c3ccccc3)c(=O)c3cc(C)ccc32)cc1Cl 2.25%
COc1cccc(N2CCN(C(=O)c3ccc4c(Cl)c5c(nc4c3)CCCC5)CC2)c1 -14.9%
CCc1ccc(NC(=O)CSC2=Nc3ccccc3C3=NC(CC(=O)NCc4cccs4)C(=O)N23)cc1 (stereo unspecified) 0.298%
CCC(Cn1nnc2ccccc2c1=O)NC(=O)Nc1cc(OC)cc(OC)c1 (stereo unspecified) -6.01%
Cc1cc2c(cc3c(SCc4cccc(Cl)c4)nnc(C)n32)o1 -4.85%
CCC(=O)N1CCc2cc(Br)cc(S(=O)(=O)N3CCC(C(=O)Nc4cccc(C)c4)CC3)c21 2.73%
CNC(=O)c1cccc(-n2c(C)nc3cccnc32)c1C 0.973%
O=c1c2cccnc2n(Cc2ccc(Cl)cc2)c(=O)n1Cc1ccc(F)cc1 -2.38%
CCCSc1nnc(NC(=O)Cc2coc3cc(C)ccc23)s1 -2.64%
CC(=O)c1ccc(NC(=O)CSc2nc3c(=O)n(C)c(=O)n(C)c3n2C)cc1 -0.426%
CC(=O)Nc1ccc(S(=O)(=O)N2CCN(c3ccc(C)c(C)c3)CC2)cc1 -16.2%
Cc1cccc(NC(=O)Nc2ccc(C)c(C)c2)n1 1.79%
Cc1cc(OCC(=O)Nc2ccc(C(=O)OC3CCCCC3)cc2)ccc1Cl 6.15%
CNC(=O)C1CCC(Cn2c(=O)c3sccc3n(CC(=O)Nc3cc(C)cc(C)c3)c2=O)CC1 (stereo unspecified) -6.93%
COc1cccc(NC(=O)Cn2nc(-c3ccncc3)ccc2=O)c1 -10.6%
CCOc1ccc(NC(=O)C(=O)NCCc2sc(-c3ccc(C)cc3)nc2C)cc1 -1.12%
CC(C)c1ccc(C(=O)CC2(O)C(=O)N(CCc3ccccc3)c3ccc(Cl)cc32)cc1 (stereo unspecified) -25.8%
O=C(c1c[nH]c2ccc(S(=O)(=O)Nc3ccccc3F)cc2c1=O)N1CCCCCC1 -9.2%
COc1ccc(OC)c(NC(=O)C2CCN(S(=O)(=O)c3c(C)noc3/C=C/c3ccc(C)cc3)CC2)c1 2.23%
CC1CCCCN1CCCNC(=O)c1sc2ncccc2c1-n1cccc1 (stereo unspecified) -0.0938%
CCC(C)n1c(=N)c(C(=O)NCc2ccco2)cc2c(=O)n3cc(C)ccc3nc21 (stereo unspecified) 12.3%
Cc1cccc(Cn2c(CN3CCC(C(=O)NCc4ccccc4Cl)CC3)cc3ccccc32)c1 0%
Cc1ccc(C(=O)Nc2cc(-c3nc4cc(Cl)ccc4o3)ccc2C)c(C)c1 1.22%
O=S(=O)(NCc1csc(-c2ccccc2)n1)c1ccccc1 -2.3%
COc1ccc(Cn2c(CNS(=O)(=O)c3ccc(Cl)s3)nc3cccnc32)cc1 -11.1%
COC(=O)c1sc(N2C(=O)c3oc4cc(C)c(C)cc4c(=O)c3C2c2ccccc2F)nc1C (stereo unspecified) 5.33%
CCCN1C(=O)c2[nH]nc(-c3ccc(OC)cc3)c2C1c1ccccn1 (stereo unspecified) -5.63%
COc1ccc(CN2CCc3nc(N4CCN(c5ccc(F)cc5)CC4)ncc3C2)c(OC)c1OC -1.6%
Cc1ccc(NC(=O)c2cnc3cc(C)ccn3c2=O)c(C)c1 1.48%
COc1ccc(-c2cc(C(=O)Nc3cc(C)nn3-c3ccccc3)no2)cc1OC -19%
CCCCSc1nc(-c2cccc(OC)c2)nc2c1Cc1c(CO)cnc(C)c1O2 4.47%
CC1CCCCN1C(=O)CN1CCSc2ccccc21 (stereo unspecified) 0.178%
CCC(=O)Nc1ccc(CC)cc1-c1nc2ccccc2n(CC(=O)c2ccc(OC)cc2)c1=O -0.294%
CCc1nonc1NC(=O)c1oc2cc(C)c(C)cc2c1C -2.5%
Cc1ccc(-c2cc(NC(=O)c3cccc(C)c3)on2)cc1 -3.44%
O=S(=O)(NCc1ccc(F)cc1)c1ccc2[nH]c3c(c2c1)CCCC3 -13.4%
COc1ccc(NC(=O)C2Cc3ccccc3CN2S(=O)(=O)c2ccccc2)cc1OC (stereo unspecified) 12%
COc1ccc(C(=O)Oc2ccc(C(c3c(C)[nH][nH]c3=O)c3c(C)[nH][nH]c3=O)cc2)cc1 5.91%
